Test results taken from patent US20230159603A1 (XILIO DEVELOPMENT, published 2023).
Numbering of substitutions follows the chain as printed.

B1: AK920 (Fc fusion)
chain 1: [human IgG1 Fc with changes left out here]PGGSGPKIDACKRGDVTVKPSHVILLGSTVNITCSLKPRQGCFHYSRRNKLILYKFDRRINFHHGHSLNSQVTGLPLGTTLFVCKLACINSDEIQICGAEIFVGVAPEQPQNLSCIQKGEQGTVACTWERGRDTHLYTEYTLQLSGPKNLTWQKQCKDIYCDYLDFGINLTPESPESNFTAKVTAVNSLGSSSSLPSTFTFLDIVRPLPPWDIRIKFQKASVSRSTLYWRDEGLVLLNRLRYRPSNSRLWNMVNVTKAKGRHDLLDLKPFTEYEFQISSKLHLYKGSWSDWSESLRAQTPEE
chain 2: DKTHTCPPCPAPELLGGPSVFLFPPKPKDTLMISRTPEVTCVVVDVSHEDPEVKFNWYVDGVEVHNAKTKPREEQYASTYRVVSVLTVLHQDWLNGKEYKCKVSNKALPAPIEKTISKAKGQPREPQVYTLPPCRDELTKNQVSLWCLVKGFYPSDIAVEWESNGQPENNYKTTPPVLDSDGSFFLYSKLTVDKSRWQQGNVFSCSVMHEALHNHYTQKSLSLSPGGGSGGSRAAAVKSPSGPIWELKKDVYVVELDWYPDAPGEMVVLTCDTPEEDGITWTLDQSSEVLGSGKTLTIQVKEFGDAGQYTCHKGGEVLSHSLLLLHKKEDGIWSTDILKDQKEPKNKTFLRCEAKNYSGRFTCWWLTTISTDLTFSVKSSRGSSDPQGVTCGAATLSAERVRGDNKEYEYSVECQEDSACPAAEESLPIEVMVDAVHKLKYENYTSSFFIRDIIKPDPPKNLQLKPLKNSRQVEVSWEYPDTWSTPHSYFSLTFSVQVQGKDNTEGRVFTDKTSATVICRKNASISVRAQDRYYSSSWSEWASVPCSGGGGSGGGGSGGGGSRNLPVATPDPGMFPCLHHSQNLLRAVSNMLQKARQTLEFYPCTSEEIDHEDITKDKTSTVEACLPLELTKNESCLNSRETSFITNGSCLASRKTSFMMALCLSSIYEDLKMYQVEFKTMNAKLLMDPKRQIFLDQNMLAVIDELMQALNFNSETVPQKSSLEEPDFYKTKIKLCILLHAFRIRAVTIDRVMSYLNAS
B2: AK924 (Fc fusion)
chain 1: [human IgG1 Fc with changes left out here]GGSGGGSGKIDACKRGDVTVKPSHVILLGSTVNITCSLKPRQGCFHYSRRNKLILYKFDRRINFHHGHSLNSQVTGLPLGTTLFVCKLACINSDEIQICGAEIFVGVAPEQPQNLSCIQKGEQGTVACTWERGRDTHLYTEYTLQLSGPKNLTWQKQCKDIYCDYLDFGINLTPESPESNFTAKVTAVNSLGSSSSLPSTFTFLDIVRPLPPWDIRIKFQKASVSRSTLYWRDEGLVLLNRLRYRPSNSRLWNMVNVTKAKGRHDLLDLKPFTEYEFQISSKLHLYKGSWSDWSESLRAQTPEE
chain 2: B1 chain 2
B3: AK919 (Fc fusion)
chain 1: [human IgG1 Fc with changes left out here]GGSPGKIDACKRGDVTVKPSHVILLGSTVNITCSLKPRQGCFHYSRRNKLILYKFDRRINFHHGHSLNSQVTGLPLGTTLFVCKLACINSDEIQICGAEIFVGVAPEQPQNLSCIQKGEQGTVACTWERGRDTHLYTEYTLQLSGPKNLTWQKQCKDIYCDYLDFGINLTPESPESNFTAKVTAVNSLGSSSSLPSTFTFLDIVRPLPPWDIRIKFQKASVSRSTLYWRDEGLVLLNRLRYRPSNSRLWNMVNVTKAKGRHDLLDLKPFTEYEFQISSKLHLYKGSWSDWSESLRAQTPEE
chain 2: DKTHTCPPCPAPELLGGPSVFLFPPKPKDTLMISRTPEVTCVVVDVSHEDPEVKFNWYVDGVEVHNAKTKPREEQYASTYRVVSVLTVLHQDWLNGKEYKCKVSNKALPAPIEKTISKAKGQPREPQVYTLPPCRDELTKNQVSLWCLVKGFYPSDIAVEWESNGQPENNYKTTPPVLDSDGSFFLYSKLTVDKSRWQQGNVFSCSVMHEALHNHYTQKSLSLSPGGGSGGSGGSDSGGFMLTSGPIWELKKDVYVVELDWYPDAPGEMVVLTCDTPEEDGITWTLDQSSEVLGSGKTLTIQVKEFGDAGQYTCHKGGEVLSHSLLLLHKKEDGIWSTDILKDQKEPKNKTFLRCEAKNYSGRFTCWWLTTISTDLTFSVKSSRGSSDPQGVTCGAATLSAERVRGDNKEYEYSVECQEDSACPAAEESLPIEVMVDAVHKLKYENYTSSFFIRDIIKPDPPKNLQLKPLKNSRQVEVSWEYPDTWSTPHSYFSLTFSVQVQGKDNTEGRVFTDKTSATVICRKNASISVRAQDRYYSSSWSEWASVPCSGGGGSGGGGSGGGGSRNLPVATPDPGMFPCLHHSQNLLRAVSNMLQKARQTLEFYPCTSEEIDHEDITKDKTSTVEACLPLELTKNESCLNSRETSFITNGSCLASRKTSFMMALCLSSIYEDLKMYQVEFKTMNAKLLMDPKRQIFLDQNMLAVIDELMQALNFNSETVPQKSSLEEPDFYKTKIKLCILLHAFRIRAVTIDRVMSYLNAS
B4: AK921 (Fc fusion)
chain 1: [human IgG1 Fc with changes left out here]GGSPGKIDACKRGDVTVKPSHVILLGSTVNITCSLKPRQGCFHYSRRNKLILYKFDRRINFHHGHSLNSQVTGLPLGTTLFVCKLACINSDEIQICGAEIFVGVAPEQPQNLSCIQKGEQGTVACTWERGRDTHLYTEYTLQLSGPKNLTWQKQCKDIYCDYLDFGINLTPESPESNFTAKVTAVNSLGSSSSLPSTFTFLDIVRPLPPWDIRIKFQKASVSRSTLYWRDEGLVLLNRLRYRPSNSRLWNMVNVTKAKGRHDLLDLKPFTEYEFQISSKLHLYKGSWSDWSESLRAQTPEE
chain 2: B3 chain 2 with D236R, S237A, G238A, G239A, F240V, M241K, L242S, T243P

target: human IL-12 receptor (IL-12Rβ1 and IL-12Rβ2) on HEK-Blue IL-12 reporter cells (human, UniProt P42701 24-662; Q99665 24-862); experiment: cell-based or functional assay

Aklusion (Run 1)	Aklusion (Run 2)	Average Aklusion	Binder
45.3 fold	45.3 fold	45.3 fold	B1
41.8 fold	31.1 fold	36.4 fold	B2
49.9 fold	59.8 fold	54.9 fold	B3
68.9 fold	54.8 fold	61.9 fold	B4
